Among all 1,300 compounds or so, about 380 (29%) were called active. Inconclusive means that the source gave no clear call. Such entries were picked first, then a sample of the others. The call rests on the fitted dose curve; in most records, active means well fitted inhibition curve with a large enough effect; inconclusive means small, poorly fitted or top-dose-only effect; inactive means flat fitted curve, though single readings scatter. Where the call is inconclusive, the potency comes from a doubtful curve fit.
Biological target: Thyrotropin receptor (Homo sapiens) (UniProt P16473)
Experiment: qHTS for antagonists of the Thyroid Stimulation Hormone Receptor: Hit Validation in Primary Screen; further: nearly all actives have a fitted effect of over 80% in size
Conditions: TSHR-expressing cells, cAMP antagonist mode
How it was run: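 TSHR-expressing cells were pretreated with compound, then stimulated with TSH at EC80 (4nM final) for 2 hours at 37 deg C. Cellular cAMP measured by competitive HTRF (anti-cAMP cryptate, cAMP-d2) after 30 min at room temperature.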
Potency means the concentration at half of the fitted maximal effect; tags describe the fitted curve by direction and shape.

Sequence of UniProt P16473 (P16473 whole entry, looked up): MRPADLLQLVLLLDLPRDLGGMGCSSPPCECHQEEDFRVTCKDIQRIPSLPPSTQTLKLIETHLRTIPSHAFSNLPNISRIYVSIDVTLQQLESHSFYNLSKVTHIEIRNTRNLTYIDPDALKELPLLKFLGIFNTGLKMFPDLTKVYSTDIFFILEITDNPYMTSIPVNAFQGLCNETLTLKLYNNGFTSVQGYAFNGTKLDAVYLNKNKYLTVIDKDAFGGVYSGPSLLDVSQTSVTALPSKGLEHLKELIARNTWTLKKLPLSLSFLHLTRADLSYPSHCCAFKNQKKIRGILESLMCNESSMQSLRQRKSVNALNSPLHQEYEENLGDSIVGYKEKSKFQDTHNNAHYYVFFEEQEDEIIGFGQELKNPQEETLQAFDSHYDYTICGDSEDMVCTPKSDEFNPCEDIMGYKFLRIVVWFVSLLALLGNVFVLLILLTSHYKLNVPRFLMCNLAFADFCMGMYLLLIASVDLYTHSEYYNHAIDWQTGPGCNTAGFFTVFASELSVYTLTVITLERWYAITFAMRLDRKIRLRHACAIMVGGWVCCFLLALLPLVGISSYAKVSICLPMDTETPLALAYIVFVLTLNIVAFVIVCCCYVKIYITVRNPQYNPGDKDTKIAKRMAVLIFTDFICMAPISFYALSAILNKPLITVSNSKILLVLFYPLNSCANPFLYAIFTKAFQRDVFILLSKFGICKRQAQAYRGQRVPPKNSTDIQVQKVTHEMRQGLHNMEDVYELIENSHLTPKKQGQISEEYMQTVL

Potency, active:
CCn1c(Cl)c(C=O)s/c1=N\S(=O)(=O)c1ccccc1 21.3 µM
COc1ccc(-c2sc3ccc(N4CCOCC4)cc3c2C#CCO)cc1 19 µM
CCOc1ccc2nc(NC(=O)c3ccc(OCC4CCCO4)cc3)sc2c1 (stereo unspecified) 30.1 µM
COc1ccc(C(=O)NC2CCCc3c2cnn3-c2cccc(C)c2C)c(OC)n1 (stereo unspecified) 21.3 µM
Cc1nn(-c2ccccc2)c(C)c1NC(=O)COc1ccc(Br)cc1Cl 23.9 µM
O=C(O)c1nn(CC(=O)N2CCN(c3ncc(C(F)(F)F)cc3Cl)CC2)c(=O)c2ccccc12 21.3 µM
CC(C)N(Cc1ccccc1)C(=O)COC(=O)c1cnc(Cl)c(Cl)c1 23.9 µM
C/C(=N\NC(=O)c1cccc(Cl)c1)C1C(=O)c2ccccc2C1=O 12 µM
O=S(=O)(Nc1cccnc1)c1ccc(Br)c2ccccc12 26.9 µM

Potency, inconclusive:
Clc1ccc(CCNc2ncnc3nc[nH]c23)cc1 37.9 µM [inhibitor, partial curve]
COc1ccc(NC(=O)/C(Cl)=C(/Cl)S(=O)(=O)Cc2ccccc2)cn1 60.1 µM [inhibitor, partial curve]
O=C(NC1CCCCC1)C(c1cccs1)N(Cc1cccs1)C(=O)c1cccs1 (stereo unspecified) 10.7 µM [inhibitor, partial curve, poor fit]
CCc1noc(C)c1C(=O)OCC(=O)Nc1nc(-c2ccc(F)c(F)c2)cs1 151 µM [inhibitor, partial curve]
Cc1ccc(C2=NS(=O)(=O)N(C)C(C(=O)NCc3ccc(F)cc3)=C2)cc1 33.8 µM [inhibitor, partial curve, poor fit]
CC1CCN(S(=O)(=O)c2nnc(NC(=O)c3cccc([N+](=O)[O-])c3)s2)CC1 95.3 µM [inhibitor, partial curve]
Cc1cccc(OCC(=O)Nc2nc3ccc([N+](=O)[O-])cc3s2)c1C 37900 µM [inhibitor, partial curve, poor fit]
COc1cccc(C(=O)Nc2ccc(NC(=O)C3CCCCC3)nc2)c1 53.6 µM [inhibitor, partial curve, poor fit]
Cc1cccc(N2CCN(S(=O)(=O)c3ccc4c(c3)NC(=O)CS4)CC2)c1C 21.3 µM [inhibitor, partial curve, poor fit]
COc1ccc(Cc2nc(-c3ccc(-n4cccc4)cc3)no2)cc1OC 95.3 µM [inhibitor, partial curve]
O=C(OCc1cc(Cl)ccc1OC(F)F)c1cncc(Br)c1 75.7 µM [inhibitor, partial curve]
COc1ccc(C(=O)N2CCN(c3ccc([N+](=O)[O-])c(NCCc4ccc(OC)c(OC)c4)c3)CC2)cc1 19 µM [inhibitor, partial curve]
Cc1ccc(NC(=O)c2cnc(N3CCN(c4ccccn4)CC3)c3ccccc23)c(Br)c1 37.9 µM [inhibitor, partial curve]
Cc1ccc(NC(=O)c2nc(S(=O)(=O)Cc3ccccc3C)ncc2Cl)cc1C 75.7 µM [inhibitor, partial curve]
CC1(C)CC2(CCCN3C(=O)CSC32)CCS1 (stereo unspecified) 16.9 µM [inhibitor, partial curve, poor fit]
COC(=O)CSc1nc(-c2ccccc2)cc(-c2ccco2)c1C#N 33.8 µM [inhibitor, partial curve, poor fit]
CCOC(=O)c1sc(NC(=O)c2cc(-c3ccccc3)nc3ccccc23)c(C#N)c1C 7.57 µM [inhibitor, partial curve]
CCCc1nnc(NC(=O)c2nc(S(=O)(=O)Cc3cccc(C)c3)ncc2Cl)s1 75.7 µM [inhibitor, partial curve]
O=C(CNc1ccc(C(F)(F)F)cc1)Nc1cccc(S(=O)(=O)N2CCCC2)c1 75.7 µM [inhibitor, partial curve]
CCCCOc1ccc(/C=N/Nc2cc(N3CCOCC3)nc(C)n2)cc1 75.7 µM [inhibitor, partial curve]
Cc1ccc(Nc2nc(N3CCOCC3)nc(N3CCOCC3)n2)cc1Cl 37.9 µM [inhibitor, partial curve, poor fit]
CC(=O)NC12CC3CC(C1)CC(C(=O)OCC(=O)c1ccc4c(c1)OCCO4)(C3)C2 47.8 µM [inhibitor, partial curve]
COc1ccccc1NS(=O)(=O)c1cc(NC(=O)c2ccc3c(c2)OCCO3)ccc1C 75.7 µM [inhibitor, partial curve, poor fit]
COc1cc(C(=O)Nc2nc(-c3cccs3)cs2)cc(OC)c1OC 95.3 µM [inhibitor, partial curve]
Cc1ccc(SC(CC(=O)c2ccc(C(C)(C)C)cc2)C(=O)O)cc1 (stereo unspecified) 47.8 µM [inhibitor, partial curve]
CN(c1ccc(C(=O)NCCSCc2ccccc2)cc1)S(=O)(=O)c1ccccc1 120 µM [inhibitor, partial curve]
Cc1csc(NC(=O)c2cc3c(s2)CCCC3)n1 37.9 µM [inhibitor, partial curve, poor fit]
COCC(C)n1c(COc2ccccc2F)nnc1SCc1c(C)noc1C (stereo unspecified) 37.9 µM [inhibitor, partial curve]
N=c1oc2cc(O)ccc2cc1C(=O)Nc1ccc(Br)cc1 60.1 µM [inhibitor, partial curve]
CC1=NN(C(N)=S)C(=O)C1N=Nc1c(Br)cc(Br)cc1Br (stereo unspecified) 37.9 µM [inhibitor, partial curve]
CCn1c(=NC(=O)CSC(C)=O)sc2ccccc21 26.9 µM [inhibitor, partial curve, poor fit]
COc1cc2cnc(-c3ccccc3)c(-c3ccc(C#N)cc3)c2cc1OC 42.6 µM [inhibitor, partial curve, poor fit]
Cc1ccc(CSc2nnc(SCC(=O)N/N=C/c3c(C)nn(-c4ccccc4)c3C)s2)cc1 75.7 µM [inhibitor, partial curve]
Cc1cc(NC(=O)CC(C)C)c(=O)n(Cc2cccc(F)c2)c1 42.6 µM [inhibitor, partial curve, poor fit]
O=C(CCSc1ccc(Cl)c(Cl)c1)NC12CC3CC(CC(C3)C1)C2 21.3 µM [inhibitor, partial curve, poor fit]
Cc1c(C(=O)Nc2nccs2)sc2nc(-c3cccs3)cc(C(F)(F)F)c12 239 µM [inhibitor, partial curve, poor fit]
COc1ccc(NC(=O)c2ccc(-c3ccccc3)cc2)cc1NS(=O)(=O)c1ccc(F)cc1 7.57 µM [inhibitor, partial curve, poor fit]
Cc1cccc2c1NC(=O)C2(c1ccc(O)cc1)c1ccc(O)cc1 75.7 µM [inhibitor, partial curve]

Potency, inactive:
NS(=O)(=O)c1ccc(CNC(=O)CCS(=O)(=O)Cc2ccccc2)cc1
O=c1[nH]cccc1-c1nc2ccccc2n1Cc1ccc(F)cc1
COc1ccc(NS(=O)(=O)c2cn(C)cn2)cc1Cl
COc1ccc(-c2cn(CCCOCc3ccccc3)nn2)cc1
CCOc1ccc(C2NC(=O)c3ccccc3O2)cc1OC (stereo unspecified)
Cc1ccc(NC(=O)Nc2ccc3c(c2)OCO3)c(OC(F)F)c1
CCSc1ccc(C(=O)Nc2ccc(Br)cn2)cc1[N+](=O)[O-]
CS(=O)(=O)N(Cc1ccccc1)c1ccc(C(=O)N2CCN(c3cccc(Cl)c3)CC2)cc1
Cc1ccccc1NC(=O)C1C2CCCCC21 (stereo unspecified)
O=C(Nc1cccc2ccccc12)c1ccccc1
CC(=O)N1c2ccc(S(=O)(=O)NCCC(=O)Nc3ccccc3C)cc2CC1C (stereo unspecified)
Cc1ccccc1N1CCN(C2CCCN(C(=O)c3cnsn3)C2)CC1 (stereo unspecified)
CC1CCCC(NC(=O)CN2C(=O)COc3ccccc32)C1C (stereo unspecified)
CC1CC(C)CN(CCCNC(=O)CN2C(=O)COc3ccc(S(=O)(=O)N4CCOCC4)cc32)C1 (stereo unspecified)
O=c1nc(/C=C/c2ccccc2C(F)(F)F)cc(C(F)(F)F)[nH]1
Cc1cc(C#N)c(SCC(N)=O)nc1-c1ccc(F)cc1
CCOc1ccccc1/C=C/c1onc(C)c1S(=O)(=O)N1CCC(C(=O)N2CCCCCC2)CC1
Cc1cc(C)n2nc(SCC(=O)Nc3ccccc3C)nc2n1
Cc1ccc(CNS(=O)(=O)c2ccc(CN3C(=O)c4cccnc4C3=O)s2)o1
CCSc1ncc(Cl)c(C(=O)Nc2ccccc2OC)n1
COc1ccccc1N1CCN(C(=O)CCC(=O)N2CCN(c3ccc(F)cc3)CC2)CC1
Cc1ccc(OCc2nnc(NC(=O)c3cccnc3)s2)cc1
CCN(CCCNC(=O)Cn1ncc2c([nH]c3ccc(C)cc32)c1=O)c1cccc(C)c1
Cc1cc(C)cc(C(=O)NC(CC(N)=O)c2ccc(NCCN3CCCC3)c([N+](=O)[O-])c2)c1 (stereo unspecified)
